± gives the standard deviation of the averaged measurements. The list shows a part of the results.
What follows are sequences tested on PfAP2-LT AP2 domain (GST-tagged) (assay: gcPBM binding intensity (ln(normalized median fluorescence intensity)); higher = stronger DNA binding).
Summary of the method: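 Plasmodium falciparum DNA-binding domains carrying a GST tag were expressed in E. coli and applied for 1 h, at about 25 μg on average, to an Agilent 4 × 180k array. The array held primer-extended double-stranded 36-bp intergenic genomic probes together with negative controls, and binding took place in 1× PBS with 1% milk, 0.2 mg/ml BSA, 0.5% salmon testes DNA and 0.03% Triton X-100. An Alexa488 anti-GST antibody detected bound protein, and the array was scanned at 488 nm. Binding intensity is taken as the highest Masliner-normalised natural-log median intensity across replicate spots of either probe orientation.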

Sequence	gcPBM binding intensity (ln)
ATTGTGTTAATGAAATGTACATTTTCTCTACGTTAA [XGTACX_site1322]	8.81 ± 0.44
AATATTATGTATAACCGTACATTATATATATAATAA [XGTACX_site1594]	8.68 ± 0.42
GTGTAAAGGTATTATTGTATTATTCAAAATAAAAAA [CACACA_negctrl_site637]	8.57 ± 0.5
ATTAAAATAATTTAATTTCTTAGACACAATTTGTAA [GTGCAC_negctrl_site331]	8.19 ± 0.45
TTAAACTTGTTTTGGATGCACTATATAATTCATTTT [GTGCAC_site9549]	8.62 ± 0.54
TCCTACATATTATAGTGTACATTTTCATGTTCATAT [XGTACX_site4308]	9.03 ± 0.4
AAGTATTATATATTTTGTACATATATAAAACCACAA [XGTACX_site5508]	8.63 ± 0.39
TATTTTGTAATAATTACACACGGAATTATAACAGAA [CACACA_site2355]	8.85 ± 0.34
TCTTAATTTGTTATATGTACATAATATAATTGTATA [XGTACX_site5184]	8.77 ± 0.35
TTATATTAATAAAAAGAAAATCATTTTTTCTTTTAT [CACACA_negctrl_site1595]	8.05 ± 0.47
ATATATATATTTATATTTATATGTAAATATCAACGT [TGCATGCA_negctrl_site32]	8.77 ± 0.4
TATATTAATAATAAGTGTACATATATATATATTTTT [XGTACX_site288]	8.71 ± 0.36
AATATATAGAGAGATATGCACACTGTATGAATGCAC [CACACA_site2677]	9.04 ± 0.42
TATTTTTTCTTTCATTGTACTTTTTTTTTGTTTTGT [XGTACX_site4081]	8.9 ± 0.66
ATTTGTAAAAAATTCATACACACGTCTTATTTTTAA [CACACA_site1390]	9.15 ± 0.35
AATGAGAAATATAATTGTACATATATTTATTTTCAT [XGTACX_site3669]	8.62 ± 0.38
TATCCATTTCTTTATGTGCACATTAAATATATTTGT	9.06 ± 0.52
AATACTATTATTATTGCACACTTATTATCCCTCGGA [CACACA_site4262]	9.05 ± 0.43
TATAAAAATATTTCTACACACATTAATATATATATA [CACACA_site1150]	8.8 ± 0.46

Sequence	gcPBM binding intensity (ln)
CAAAAGGATAGGCACACACACACACCCATATATATA [CACACA_site2199]	10.2 ± 0.23
AATATGTCTATATTTTTTATATGGAAATATTATAAA [GTGCAC_negctrl_site700]	8.1 ± 0.31
TTTTTTTTTTTTTTTTTTTTTTTATCTATTATTTAT [XGTACX_negctrl_site496]	8.26 ± 0.24
AAACAAAAAATTTAAAGTACAAAAATTATGATTGTT [XGTACX_site465]	8.7 ± 0.42
AAAAAATTAATATTGACACACATTTTTAAGAATAAT [CACACA_site239]	8.68 ± 0.4
AATGAATATATTTATTGTACATATATGAATATTGCA [XGTACX_site8689]	8.63 ± 0.43
ATTTTTTTATTTTTGTGTACTTATAAGAATATTAAT [XGTACX_site4850]	8.72 ± 0.43
AAAAAAAAAAAAAAAAGTACAAAAAGGAGAAAGATA [XGTACX_site7862]	8.71 ± 0.52
TATATATATATATATAGTACGCACACATAGTTGCAA [XGTACX_site5875]	9.6 ± 0.014
TATTTTTTATGATTAACACACACACTAATAAAAAAA [CACACA_site9370]	9.12 ± 0.32
ATTCTTACTAATATCGCACACACATATGTAGACGGG [CACACA_site88]	9.56 ± 0.3
AACAAGTTGCATGGTGCACACATGTATATATATCTA [CACACA_site2548]	9.16 ± 0.47
AAAATGTATGTAGTCTGTACAAATACTCTATAAATA [XGTACX_site6475]	8.74 ± 0.52
TACAATTTTACTCATAAACACACATATATATGTTAT [CACACA_site9031]	8.97 ± 0.38
AGGTTTATAAAAAAAAAAAAAAAAAAAAAAAAAAAA [GTGCAC_negctrl_site113]	7.96 ± 0.32
ACCCAGTGTATTCATAGTACACGCTCATATATTATC [XGTACX_site423]	9.01 ± 0.39
CACAAAGGTCTGAAATTTTAGGGGTGCCTGGGACTA [CACACA_negctrl_site681]	8.51 ± 0.35
AATATTTAAAACATATGTACTGAAAAACAATTGGAC [XGTACX_site6360]	8.94 ± 0.46
ACAAGATAATAGAGAAGTACTAATAAACATACACAA [XGTACX_site6617]	8.97 ± 0.53

Sequence	gcPBM binding intensity (ln)
AATATAAAATCAAGAAATTAAAAAAAAACAGAAAAC [CACACA_negctrl_site1004]	8.89 ± 0.52
TCATAAAAGATTAAGTGTACATGTGCTACTCTTATA [XGTACX_site6255]	8.7 ± 0.47
TATATATATATATGTGCACACCAATTGTATGTAATA [CACACA_site3888]	9.8 ± 0.23
ATTTTAAATTTATCTGTGCACAGTATTATATAAGCA [GTGCAC_site9806]	8.77 ± 0.46
TATGTTCCTTTTTGTTGTACTGAAAAATTATGTTCA [XGTACX_site3981]	8.73 ± 0.42
ATAATATAAATTAATTTACACACTAATAAATATATA [CACACA_site9259]	8.71 ± 0.4
GAGAGAGAAATATGCACACATAAGGGAAATAAATAA [CACACA_site1153]	9.28 ± 0.47
TTTTGATGCTTTAAATGTACAAGGGTTCTTATGAAA [XGTACX_site831]	8.25 ± 0.38
GAAAAAAAAAGTTAAGCACACACATGAATAAATAAT [CACACA_site8179]	9.33 ± 0.42
AAAAAAAAAAAATAGAAAAAAAAATAAAATAAAAAA [CACACA_negctrl_site562]	8.46 ± 0.71
TGTATATAATTTATATGTACATATATTTTATTTTGT [XGTACX_site1905]	8.76 ± 0.57
TGTTAACCACAAAAATAAAATAAAATAAAAATAATA [XGTACX_negctrl_site535]	8.54 ± 0.52
ATTATGCACGGACACACACACACACCCCTAAAAAAT [CACACA_site5426]	10.1 ± 0.32
TGATAAATATTATGTTGTACTTTCTGCCCTTCACAT [XGTACX_site5168]	8.96 ± 0.6
TATGCTATTATATATGTACACACCAATTTATTTATA [CACACA_site3918]	8.98 ± 0.38
TTTCCCATAGGAAAAACACACATATATTATAGATAA [CACACA_site7019]	8.6 ± 0.49
AAAACATATTTTAAAAGTACTTGAAAAAAAATTTTC [XGTACX_site3940]	8.43 ± 0.45
AAACCAAAAATAACACGTACAAAAATAAAAAGTATA [XGTACX_site4261]	9.18 ± 0.52

— the supplement of paper PMC11417369
